The text below walks through data of US11618753B2 (priority 2018, dated 2023).

The structures appear in SMILES notation.

One may read the IC50 as the concentration at which inhibition is half-maximal.

The test system of this test is MLKL phosphorylation, HT29-L23 human colorectal adenocarcinoma cells. Briefly: cells. As to conditions: read-out: pMLKL HCS Cell Assay (IC50, uM).
`COc1ncc(-c2cc(CO)c3c(N)ncnn23)cc1C(=O)Nc1cnn(Cc2ccccc2)c1` [Example 51, 5-(4-amino-5-(hydroxymethyl)pyrrolo[2,1-f][1,2,4]triazin-7-yl)-N-(1-benzyl-1H-pyrazol-4-yl)-2-methoxynicotinamide]: the IC50 turned out to be 0.0037 µM.
The result for `Cc1c(F)cc(-c2cc(C(F)(F)F)c3c(N)ncnn23)cc1C(=O)N[C@@H]1CN(C(=O)c2ccncc2F)C[C@@H]1F` [Example 1323, 5-[4-amino-5-(trifluoromethyl)pyrrolo-[2,1-f][1,2,4]triazin-7-yl]-3-fluoro-N-[(3R,4S)-4-fluoro-1-(3-fluoropyridine-4-carbonyl)pyrrolidin-3-yl]-2-methyl-benzamide] reads 0.0049 µM; that for `Cc1ncc(-c2cc(C(F)(F)F)c3c(N)ncnn23)cc1C(=O)N[C@@H]1CN(C(=O)c2cc(F)ccc2F)C[C@@H]1F` [Example 367, 5-[4-amino-5-(trifluoromethyl)pyrrolo [2,1-f][1,2,4]triazin-7-yl]-N-[(3R,4S)-1-(2,5-difluorobenzoyl)-4-fluoro-pyrrolidin-3-yl]-2-methylpyridine-3-carboxamide], 0.0087 µM.
Take `Cc1ncc(-c2cc(C(F)(F)F)c3c(N)ncnn23)cc1C(=O)N[C@@H]1CN(C(=O)CC(C)(O)C(F)(F)F)C[C@@H]1F` (stereo partly drawn) [Example 1234, 5-[4-amino-5-(trifluoromethyl)pyrrolo[2,1-f][1,2,4]triazin-7-yl]-N-[(3R,4S)-4-fluoro-1-(4,4,4-trifluoro-3-hydroxy-3-methylbutanoyl)pyrrolidin-3-yl]-2-methylpyridine-3-carboxamide]: the IC50 is 0.012 µM.
Under `Nc1ncnn2c(-c3cc(F)c(CF)c(C(=O)N[C@@H]4CN(C(=O)CC(O)(C(F)(F)F)C(F)(F)F)C[C@@H]4F)c3)cc(C(F)(F)F)c12` [Example 570, 5-[4-amino-5-(trifluoromethyl)pyrrolo[2,1-f][1,2,4]triazin-7-yl]-3-fluoro-N-[(3R,4S)-4-fluoro-1-[4,4,4-trifluoro-3-hydroxy-3-(trifluoromethyl)butanoyl]pyrrolidin-3-yl]-2-(fluoromethyl)benzamide] stands 0.0012 µM; under `COc1ncc(-c2cc(C(F)(F)F)c3c(N)ncnn23)cc1C(=O)N(C)[C@@H]1CN(C(=O)[C@@](C)(O)C(F)(F)F)C[C@@H]1F` [Example 1346, 5-(4-amino-5-(trifluoromethyl)pyrrolo[2,1-f][1,2,4]triazin-7-yl)-N-((3R,4S)-4-fluoro-1-((R)-3,3,3-trifluoro-2-hydroxy-2-methylpropanoyl)pyrrolidin-3-yl)-2-methoxy-N-methylnicotinamide], 0.035 µM.
Under `CCC(O)(C(=O)N1C[C@H](F)[C@H](NC(=O)c2cc(-c3cc(C(F)(F)F)c4c(N)ncnn34)cc(C)c2Cl)C1)C(F)(F)F` (stereo partly drawn) [Example 703, 5-[4-amino-5-(trifluoromethyl)pyrrolo[2,1-f][1,2,4]triazin-7-yl]-2-chloro-N-[(3R,4S)-4-fluoro-1-[2-hydroxy-2-(trifluoromethyl)butanoyl]pyrrolidin-3-yl]-3-methylbenzamide] stands 0.009 µM; under `COc1ncc(-c2cc(CN3CCOCC3)c3c(N)ncnn23)cc1C(=O)N[C@@H]1CN(CC(O)C(F)(F)F)C[C@@H]1F` (stereo partly drawn) [Example 481, 5-{4-amino-5-[(morpholin-4-yl)methyl]pyrrolo[2,1-f][1,2,4]triazin-7-yl}-N-[(3R,4S)-4-fluoro-1-(3,3,3-trifluoro-2-hydroxypropyl)pyrrolidin-3-yl]-2-methoxypyridine-3-carboxamide], 0.106 µM; under `Nc1ncnn2c(-c3cccc(C(=O)N[C@@H]4CN(C(=O)C5CCC(F)(F)C5)C[C@@H]4F)c3)cc(C(F)(F)F)c12` (stereo partly drawn) [Example 106, 3-[4-amino-5-(trifluoromethyl)pyrrolo[2,1-f][1,2,4]triazin-7-yl]-N-[(3R,4S)-1-(3,3-difluorocyclopentanecarbonyl)-4-fluoropyrrolidin-3-yl]benzamide], 0.012 µM.
The result for `CCC(O)(C(=O)N1C[C@H](F)[C@H](NC(=O)c2cc(-c3cc(CN4CCC(F)(F)CC4)c4c(N)ncnn34)ccc2C)C1)C(F)(F)F` (stereo partly drawn) [Example 1644, 5-{4-amino-5-[(4,4-difluoropiperidin-1-yl)methyl]pyrrolo[2,1-f][1,2,4]triazin-7-yl}-N-[(3R,4S)-4-fluoro-1-[2-hydroxy-2-(trifluoromethyl)butanoyl]pyrrolidin-3-yl]-2-methylbenzamide] reads 0.00092 µM; that for `COc1ncc(-c2cc(CN3CCC(F)(F)CC3)c3c(N)ncnn23)cc1C(=O)N[C@@H]1CN(C(=O)[C@@H]2CC2(F)F)C[C@@H]1F` [Example 1559, 5-{4-amino-5-[(4,4-difluoropiperidin-1-yl)methyl]pyrrolo[2,1-f][1,2,4]triazin-7-yl}-N-[(3R,4S)-1-[(1S)-2,2-difluorocyclopropanecarbonyl]-4-fluoropyrrolidin-3-yl]-2-methoxypyridine-3-carboxamide], 0.064 µM.
Consider `Cc1ccc(-c2cc(C(F)(F)F)c3c(N)ncnn23)cc1C(=O)Nc1cn(Cc2ccccc2)cn1` [Example 1792, 5-(4-amino-5-(trifluoromethyl)pyrrolo[2,1-f][1,2,4]triazin-7-yl)-N-(1-benzyl-1H-imidazol-4-yl)-2-methylbenzamide], for which the IC50 came to 0.00037 µM.
In the case of `Nc1ncnn2c(-c3cccc(C(=O)N[C@@H]4CN(C(=O)C5CC5(F)F)C[C@@H]4F)c3)cc(CN3CC(F)(F)C3)c12` (stereo partly drawn) [Example 1177, 3-{4-amino-5-[(3,3-difluoroazetidin-1-yl)methyl]pyrrolo[2,1-f][1,2,4]triazin-7-yl}-N-[(3R,4S)-1-(2,2-difluorocyclopropanecarbonyl)-4-fluoropyrrolidin-3-yl]benzamide], the IC50 is 0.00079 µM.
In the case of `COc1c(F)cc(-c2cc(C(F)(F)F)c3c(N)ncnn23)cc1C(=O)N[C@@H]1CN(C(=O)C2CCC2)C[C@@H]1F` [Example 682, 5-[4-amino-5-(trifluoromethyl)pyrrolo[2,1-f][1,2,4]triazin-7-yl]-N-[(3R,4S)-1-cyclobutanecarbonyl-4-fluoropyrrolidin-3-yl]-3-fluoro-2-methoxybenzamide], the IC50 is 0.018 µM.
The result for `CCCC(N)(C(=O)N1C[C@H](F)[C@H](NC(=O)c2cc(-c3cc(C(F)(F)F)c4c(N)ncnn34)cnc2OC)C1)C(F)(F)F` (stereo partly drawn) [Example 1668, N-((3R,4S)-1-(2-amino-2-(trifluoromethyl)pentanoyl)-4-fluoropyrrolidin-3-yl)-5-(4-amino-5-(trifluoromethyl)pyrrolo[2,1-f][1,2,4]triazin-7-yl)-2-methoxynicotinamide] reads 0.0097 µM; that for `Nc1ncnn2c(-c3cc(C(=O)N[C@@H]4CN(C(=O)CC(C(F)(F)F)C(F)(F)F)C[C@@H]4F)c(F)cc3F)cc(C(F)(F)F)c12` [Example 783, 5-[4-amino-5-(trifluoromethyl)pyrrolo[2,1-f][1,2,4]triazin-7-yl]-2,4-difluoro-N-[(3R,4S)-4-fluoro-1-[4,4,4-trifluoro-3-(trifluoromethyl)butanoyl]pyrrolidin-3-yl]benzamide], 0.0087 µM.
The result for `CC(O)(CC(=O)N1C[C@H](F)[C@H](NC(=O)c2cc(-c3cc(C(F)(F)F)c4c(N)ncnn34)cc(F)c2Cl)C1)C(F)(F)F` (stereo partly drawn) [Example 629, 5-[4-amino-5-(trifluoromethyl)pyrrolo[2,1-f][1,2,4]triazin-7-yl]-2-chloro-3-fluoro-N-[(3R,4S)-4-fluoro-1-(4,4,4-trifluoro-3-hydroxy-3-methylbutanoyl)pyrrolidin-3-yl]benzamide] reads 0.0055 µM; that for `COc1ncc(-c2cc(C(F)(F)F)c3c(N)ncnn23)cc1C(=O)N[C@@H]1CN(S(=O)(=O)c2cccc(C)c2)C[C@@H]1F` [Example 1477, 5-[4-amino-5-(trifluoromethyl)pyrrolo[2,1-f][1,2,4]triazin-7-yl]-N-[(3R,4S)-4-fluoro-1-(3-methylbenzenesulfonyl)pyrrolidin-3-yl]-2-methoxypyridine-3-carboxamide], 0.022 µM; that for `COc1ncc(-c2cc(CN3CCC(F)(F)CC3)c3c(N)ncnn23)cc1C(=O)N[C@@H]1CN(C(=O)CC(C)C)C[C@@H]1F` [Example 1247, 5-{4-amino-5-[(4,4-difluoropiperidin-1-yl)methyl]pyrrolo[2,1-f][1,2,4]triazin-7-yl}-N-[(3R,4S)-4-fluoro-1-(3-methylbutanoyl)pyrrolidin-3-yl]-2-methoxypyridine-3-carboxamide], 0.00058 µM.
On to `Nc1ncnn2c(-c3cc(F)c(Cl)c(C(=O)N[C@@H]4CN(C(=O)CC(O)(C(F)(F)F)C(F)(F)F)C[C@@H]4F)c3)cc(C(F)(F)F)c12` [Example 637, 5-[4-amino-5-(trifluoromethyl)pyrrolo[2,1-f][1,2,4]triazin-7-yl]-2-chloro-3-fluoro-N-[(3R,4S)-4-fluoro-1-[4,4,4-trifluoro-3-hydroxy-3-(trifluoromethyl)butanoyl]pyrrolidin-3-yl]benzamide], for which the IC50 was determined as 0.0026 µM.
Under `C[C@@](O)(C(=O)Nc1ncnn2c(-c3cc(F)c(Cl)c(C(=O)N[C@@H]4CN(C(=O)[C@@](C)(O)C(F)(F)F)C[C@@H]4F)c3)cc(C(F)(F)F)c12)C(F)(F)F` [Example 564, 2-chloro-3-fluoro-N-((3R,4S)-4-fluoro-1-((R)-3,3,3-trifluoro-2-hydroxy-2-methylpropanoyl)pyrrolidin-3-yl)-5-(4-((R)-3,3,3-trifluoro-2-hydroxy-2-methylpropanamido)-5-(trifluoromethyl)pyrrolo[2,1-f][1,2,4]triazin-7-yl)benzamide] stands 0.039 µM; under `Nc1ncnn2c(-c3ccc(Cl)c(C(=O)N[C@@H]4CN(C(=O)c5cccc(F)c5)C[C@@H]4F)c3)cc(C(F)(F)F)c12` [Example 951, 5-[4-amino-5-(trifluoromethyl)pyrrolo[2,1-f][1,2,4]triazin-7-yl]-2-chloro-N-[(3R,4S)-4-fluoro-1-(3-fluorobenzoyl)pyrrolidin-3-yl]benzamide], 0.015 µM; under `Cc1cc(-c2cc(C(F)(F)F)c3c(N)ncnn23)cc(C(=O)N[C@@H]2CN(C(=O)c3ccccc3F)C[C@@H]2F)c1Cl` [Example 708, 5-[4-amino-5-(trifluoromethyl)pyrrolo[2,1-f][1,2,4]triazin-7-yl]-2-chloro-N-[(3R,4S)-4-fluoro-1-(2-fluorobenzoyl)pyrrolidin-3-yl]-3-methylbenzamide], 0.0093 µM.
